According to PubChem BioAssay AID1963576 (National Center for Advancing Translational Sciences (NCATS), 2024):
About 60 (0.1%) of roughly 46,000 compounds were called active. About 3% were inconclusive and are not listed. The call rests on the fitted dose curve; in most records, active means well fitted inhibition curve with a large enough effect; inconclusive means small, poorly fitted or top-dose-only effect; inactive means no such curve, though single readings can be large or run the other way. This is one part of the list.

test: Primary qHTS assay for Inhibitors of ovarian cancer metastasis using an organotypic tumor microenvironment (TME) model.; further: nearly all actives have a fitted effect of over 65% in size;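 on activity change, negative = inhibition: plate controls were DMSO wells for no effect and tomatine positive control wells for full effect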; settings: SKOV3ip1-GFP adhesion/invasion on 3D omental model, fluorescence; series mostly up to 45.8 µM; activity change, negative = inhibition: at the top concentration
Procedure, shortened: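 A 3D layer of primary human omental fibroblasts, mesothelial cells, fibronectin and collagen I, grown 48 hr, received SKOV3ip1-GFP cells in serum-free medium plus compounds at 0.36-46 umol/L. After 2 hr RT and 16 hr 37 C, fixed adherent GFP cells were counted; normalized to DMSO and tomatine.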

Activity change, negative = inhibition, inactive:
Cc1ccc(-n2ncc(C(=O)Nc3ccc4c(c3)OCCO4)c2C2CCN(C(=O)OC(C)(C)C)CC2)cc1C 27.8%
COc1ccccc1NC(=O)CC1Sc2ccc(C(F)(F)F)cc2NC1=O (stereo not drawn) -19.7%
Cc1c(O)cccc1C(=O)N[C@@H](CSc1ccccc1)[C@H](O)CN1C[C@H]2CCCC[C@@H]2C[C@@H]1C(=O)NC(C)(C)C 2.03%
COCCN1CCc2nc(SCC(=O)Nc3ccc(C)c(Cl)c3)[nH]c(=O)c2C1 7.48%
COc1ccc(Nc2nc3ccc(C)cc3nc2-n2nc(C)cc2C)cc1Cl 11.8%
CC1CCCCN1Cc1c(O)ccc2c(=O)c(-c3ccc(Cl)cc3)c(C(F)(F)F)oc12 (stereo not drawn) -2.33%
CCOc1ccc(C(=O)Nc2ccc3c(c2)CCCN3S(=O)(=O)c2ccc(C)cc2)cc1 3.89%
CC1=C(C(=O)OCc2ccc(C)cc2)C(c2ccccc2C(F)(F)F)CC(=O)N1 (stereo not drawn) 3.89%
Cc1ccc(OCCSc2nc3ccccc3n2CC(=O)N2CCOCC2)cc1 -11.4%
CCOC(=O)c1noc2ncn(CC(=O)Nc3ccc(F)cc3Cl)c(=O)c12 12.1%
COc1ccc(-c2onc(C)c2C)cc1S(=O)(=O)NCc1cccs1 2.11%
CCOc1ccc(NC(=O)CSc2nnc3scc(-c4ccccc4)n23)cc1 0.388%
COC(=O)c1c(NC(=O)c2ccc(Cl)c(Cl)c2)sc2c1CCCC2 -12.4%
CCOC(=O)c1sc2ncn(CC(=O)Nc3ccc(F)cc3F)c(=O)c2c1C 2.12%
COc1ccc(OC)c(CNC(=O)CCCn2c(=O)c3cccn3c3cccnc32)c1 3.56%
Cc1oc(-c2ccccc2F)nc1Cn1c(SCc2cccc(C(F)(F)F)c2)nc2ccncc21 -7.38%
O=C(Nc1ccccc1F)c1cnc(N2CCCCC2)c2ccccc12 -8.98%
Cc1ccc(C(C)C)c(OCC(=O)Nc2cc(-c3nc4ccccc4[nH]3)ccc2C)c1 -14.6%
COc1ccccc1NC(=O)c1cc2c(=O)n(Cc3cccs3)ccc2nc1C 3.9%
Cc1cccc(-n2c(C)cc(C(=O)C(=O)Nc3nncs3)c2C)c1 0.184%
Cc1cc2c(cc1S(=O)(=O)Nc1ccc(C(C)C)cc1)OCCN2C -17.2%
COc1ccccc1-c1nnc(C2CCN(C(=O)c3ccccc3C)CC2)o1 12.4%
COc1cccc(-c2nc(CS(=O)(=O)CC(=O)Nc3cccc(C(C)=O)c3)c(C)o2)c1 -22.2%
COc1cc(CN(C(=O)c2ccc(OC(C)C)cc2)c2ccccn2)cc(OC)c1OC -5.51%
COC(=O)c1ccc(NC(=O)C2CCN(c3ncnc4c3nc3n4CCCCC3)CC2)cc1 -3.98%
Cc1cc2c(cc1C1(c3ccc(C(=O)O)cn3)CC1)C(C)(C)CCC2(C)C 2.01%
CCOC(=O)CSc1nc2ccc(NC(=O)c3ccc(Cl)cc3)cc2s1 -4.45%
CCOC(=O)c1cc(C)n(CC2CCC(C(=O)Nc3ccc(OC)cc3)CC2)c1C (stereo not drawn) -7.59%
COc1ccc(C)cc1NC(=O)c1cc(S(=O)(=O)N2CCC(C)CC2)ccc1F 1.39%
CCOC(=O)c1ccccc1NC(=O)CSc1nnc(CC)n2c1cc1occc12 -2.05%
CCCCc1ccc(C(=O)Nc2ccc3nc(N4CCN(CC)CC4)cc(C)c3c2)cc1 -6.58%
Cc1cc(C)cc(Nc2cc(C(=O)NC3CCCCC3)c3ccccc3n2)c1 4.44%
Cc1cc(Nc2nc3ccccc3c3nnc(C)n23)ccc1Br 1.6%
Cc1cc(C)cc(NC(=O)CSc2c(C(C)C)cnc3c2c(=O)n(C)c(=O)n3C)c1 -5.44%
Cc1ccccc1OCC(=O)Nc1ccc(-c2nc3ncccc3o2)cc1 -4.93%
Cc1cccc(C(=O)N2CCc3cc(CNS(=O)(=O)c4ccc(Cl)s4)ccc32)c1 3.58%
Cc1ccccc1Nc1ncnc2c1cnn2C -0.325%
CCCc1nc2ccccc2n2c(-c3ccccc3)c3c(=O)n(C)c(=O)n(C)c3c12 -1.82%
Cc1ccccc1CN1C(=O)c2ccccc2Sc2ccc(C(=O)N3CCCC3)cc21 -5.53%
COc1ccc(C)cc1-n1nnc(-c2nc(-c3ccccc3Cl)no2)c1N -10.5%
Cc1ccccc1NS(=O)(=O)c1ccc2[nH]cc(C(=O)N3CCCCC3)c(=O)c2c1 0.671%
CCCCn1nc(NC(=O)c2cccc(Cl)c2)c2cc3ccccc3nc21 -2.22%
O=C(NCc1ccccc1)c1ccc(CSc2nc3cccnc3n2Cc2cccc(F)c2)cc1 12.2%
O=C(NCc1ccc(F)cc1)c1ccc2c(O)c(S(=O)(=O)c3ccccc3)c(=O)[nH]c2c1 -1.93%
CCCCn1c(NCc2ccc(OC)cc2O)nc2ccccc21 10.3%
CC(C)c1ccc(C(=O)Nc2cc(-c3ccccc3F)nn2-c2ccccc2)cc1 -8.38%
CCN(C(=O)c1coc(=O)c2ccccc12)c1ccccc1C 46.6%
CCCOc1ccc(CNC(=O)Cn2ncn3c(cc4sc(CC)cc43)c2=O)cc1 -6.43%
COc1ccc(Nc2cc(C(=O)NC3CCC(C)CC3)c3ccccc3n2)cc1OC (stereo not drawn) -7.31%
CCOc1ccc(CNC(=O)c2ccc3nc(C(C)C)oc3c2)cc1 6.49%
O=C(c1ccc(C=Cc2n[nH]c3ccccc23)cc1)N1CCNCC1 6.64%
Cc1c(C(=O)N2CCCCCC2)c(S(=O)(=O)NCc2ccc(Br)cc2)c(C)n1C -4.17%

outcome, inactive:
CCOc1ccccc1CNC(=O)Cn1c(=O)c2cccn2c2ccc(F)cc21
COc1ccccc1N1CCN(C(=O)Cn2ncc3c2-c2cc(C)ccc2OC3)CC1
CCOc1ccccc1NC(=O)Cn1c(=O)n(Cc2ccc(OC)cc2)c(=O)c2oc3ccccc3c21
COc1ccc(N(CC(=O)Nc2cc(OC)cc(OC)c2)S(=O)(=O)c2c(C)noc2C)cc1
COc1ccc(CCNc2ncnc3c2c(-c2ccccc2)cn3-c2ccc(Cl)cc2)cc1OC
Fc1ccc(-c2cc3ncc4c(n3n2)-c2cc(Cl)ccc2OC4)cc1
CCCCN(CC)CCNC(=O)c1cc2c(=O)[nH]c3ccccc3c2n1C
Cc1c(Cl)cccc1NC(=O)CN(CCc1ccccc1)S(=O)(=O)c1ccccc1
Cc1ccc(-c2nnn3c2nc(NCCc2ccc(Cl)cc2)c2ccccc23)cc1
COC(=O)c1ccc(NC(=O)NCCn2nnc3cc(S(=O)(=O)N(C)C)ccc32)cc1
Cc1ccc(-c2nc3ccccn3c2Nc2ccccc2C)s1
